Laboratory results taken from PubChem BioAssay AID1508649 (National Center for Advancing Translational Sciences (NCATS), 2021).
Out of some 43,000 compounds screened, about 830 (1.9%) were called active. Inconclusive means that the source gave no clear call. Such entries were picked first, then a sample of the others. Rule for the calls: active = clear falling dose curves in both reporters; inconclusive = both reporters move, but less clearly or upward; inactive = either reporter flat; the % is the NLuc reporter signal. Potencies of inconclusive entries are left out as doubtful fits.

Experiment: Cell-based coincidence reporter assay to measure PMP22 gene transcription in S16 Pmp22-F2sN cells - Primary screen
Details: S16 Pmp22-F2sN Schwann cells (luciferase reporters placed in the Pmp22 gene), FLuc/NLuc coincidence luminescence, 24 h; measured here: NLuc reporter readout, at 57.5 µM (top of the series)
How it was run: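 Reporter cells (S16 Pmp22-F2sN, 500–1,000 per well) exposed to compounds for 24 h, 37C, 5% CO2; lysis with FLuc read after 10 min, then Stop&Glo and NLuc read after 10 min.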
Potency is the fitted concentration of half-maximal effect; tags give direction and shape of the fitted curve.

Row | Structure (SMILES) | Potency
1 | COc1ccc(-c2noc(CCC(=O)NCc3ccc(C)cc3)n2)cc1 | inconclusive [phenotype inactive, single point]
2 | CC(C)c1ccc(NC(=O)c2cccc3c2C(=O)N(C2CCCCC2)C3)cc1 | inconclusive [phenotype inactive, partial curve, poor fit]
3 | Cc1cc(C)c(NC(=O)Cn2c(=O)n(Cc3ccco3)c(=O)c3ccc(C(=O)NC4CCCC4)cc32)c(C)c1 | active: 5.04 µM
4 | O=C(NCC(c1cccnc1)N1CCc2ccccc2C1)C(=O)Nc1ccc(Cl)cc1 (centres undefined) | inconclusive [phenotype inactive, single point]
5 | Cc1cccc(N2CCN(C(=O)c3cnn(-c4cccc(Cl)c4C)c3C3CCNCC3)CC2)c1C | inconclusive [phenotype inactive, single point]
6 | CCOc1ccc(Oc2nc(NC)nc(N3CCOCC3)n2)nn1 | inconclusive [phenotype inactive, full curve]
7 | CC(C)c1ccc(NC(=O)Cn2c(=O)n(CCc3ccccc3)c(=O)c3ccccc32)cc1 | inconclusive [phenotype inactive, single point]
8 | Cc1ccc(Nc2nn3c(=O)c4cc5c(cc4nc3s2)OCO5)cc1Cl | inactive
9 | CCc1ccc(NC(=O)C(CC)n2c(=O)c(C(F)(F)F)nc3ccccc32)cc1 (centres undefined) | inconclusive [phenotype inactive, single point]
10 | COc1cc(NS(=O)(=O)c2ccc3[nH]c4c(c3c2)CCCCCC4)cc(OC)c1 | inconclusive [phenotype inactive, single point]
11 | CCOc1cc(C2C(C(=O)Nc3ccc(OC)cc3)=C(C)Nc3nc(SC)nn32)ccc1O (centres undefined) | inconclusive [phenotype inactive, partial curve, poor fit]
12 | Cc1ccc(NC(=O)C2CCCN2S(=O)(=O)c2ccc3nc(-c4ccccc4)[nH]c3c2)cc1F (centres undefined) | inconclusive [phenotype inactive, single point]
13 | COc1ccc(Cn2c(=O)n(-c3ccccc3C)c(=O)c3c4c(sc32)CN(C(C)=O)CC4)cc1 | inconclusive [phenotype inactive, single point]
14 | COc1ccc2nc(NC(=O)c3nc(S(=O)(=O)Cc4ccccc4)ncc3Cl)sc2c1 | active: 2.99 µM
15 | CCOc1ccccc1NC(=O)N1CCN(C)c2ncccc21 | inconclusive [phenotype inactive, single point]
16 | CSc1cccc(NC(=O)CC(c2cccs2)N2Cc3ccccc3C2=O)c1 (centres undefined) | inconclusive [phenotype inactive, partial curve, poor fit]
17 | CCc1nn(CC(=O)Nc2cc(C)cc(C)c2)c(=O)c2cc3sccc3n12 | inconclusive [phenotype inactive, partial curve]
18 | CCN(CC)CCNC(=O)c1cc(-c2ccc(Br)s2)nc2ccccc12 | active: 20 µM
19 | CC(Oc1ccc(F)cc1)C(=O)Nc1nc(-c2ccc(F)cc2)ns1 (centres undefined) | inconclusive [phenotype inactive, single point]
20 | O=C(O)c1ccc(Nc2nc3ccccc3c3nncn23)cc1 | inconclusive [phenotype inactive, single point]

Row | Structure (SMILES) | Potency
21 | CCOc1cccc(NC(=O)C2CC(=O)N(C)C(=Nc3cccc(OC)c3)S2)c1 (centres undefined) | inactive
22 | Cc1ccc(C(=O)Nc2ccc(F)cc2)cc1S(=O)(=O)N1CCCCCC1 | inconclusive [phenotype inactive, single point]
23 | Cc1cccc(C)c1OCc1cc(=O)n2c(-c3ccccc3)csc2n1 | inconclusive [phenotype inactive, single point]
24 | CCN(C(=O)c1ccc2c(c1)N(Cc1cccc(Cl)c1)C(=O)c1ccccc1S2=O)c1ccccc1 (centres undefined) | inconclusive [phenotype inactive, single point]
25 | CCC(=O)N1c2ccccc2CC1C(=O)NCCCN1CCN(c2cc(C)ccc2C)CC1 (centres undefined) | inconclusive [phenotype inactive, single point]
26 | CC(C)(C)C(=O)Nc1cc(-c2cccc(Br)c2)nn1-c1ccccc1 | inconclusive [phenotype inactive, single point]
27 | Cc1ccc(Cn2nc(C)c(NC(=O)c3cc(-c4ccc(F)cc4)on3)c2C)cc1 | inconclusive [phenotype inactive, partial curve]
28 | COc1ccc(/C=C\c2onc(C)c2S(=O)(=O)N2CCC(C(=O)Nc3ccc(Cl)cc3)CC2)cc1 | inactive
29 | COc1ccc(OCc2ccc(-c3nc(C#N)c(N4CCC(C)CC4)o3)o2)cc1 | active: 6.7 µM
30 | COc1ccc(Nc2nc3c(S(=O)(=O)c4ccccc4)nnn3c3ccc(Cl)cc23)cc1OC | inactive
31 | COc1ccc(OC)c(-n2cnc3cc(C(=O)NC4CCCC4)ccc32)c1 | inactive
32 | Cc1cccc(NS(=O)(=O)c2ccc(Cl)c(C(=O)Nc3ccccc3C)c2)c1 | inactive
33 | Cc1ccc(NC(=O)Cn2cc(C(=O)c3cccs3)c3ccccc32)cc1C | inconclusive [phenotype inactive, single point]
34 | CCOc1ccccc1C(=O)NCC(c1ccc(N(C)C)cc1)N1CCc2ccccc21 (centres undefined) | inconclusive [phenotype inactive, single point]
35 | COc1ccc(CCNC(=O)c2ccc(Cn3c(=O)c4ccccc4n(Cc4ccccc4Cl)c3=O)cc2)cc1OC | inconclusive [phenotype inactive, full curve, poor fit]
36 | COc1ccccc1CNC(=O)c1cccc(NC(=O)N2CCSc3ncccc32)c1 | inactive
37 | COc1ccc(S(=O)(=O)NCCS(=O)(=O)N2CCN(c3ccccc3F)CC2)cc1 | inconclusive [phenotype inactive, single point]
38 | CCN1CCN(CCCNC(=O)c2cnn(-c3ccc(C)cc3)c2C2CCN(C(=O)OC(C)(C)C)CC2)CC1 | inactive
39 | CCCCCn1c(=O)[nH]c2cc(C(=O)N3CCN(c4ccccc4F)CC3)ccc2c1=O | inconclusive [phenotype inactive, single point]
40 | Cc1ccc(NC(=O)CSc2nc3nccnc3c(=O)n2CCc2c[nH]c3ccccc23)c(C)c1 | inactive

Row | Structure (SMILES) | Potency
41 | Cc1ccc(Cl)cc1NC(=O)c1cc(-c2ccc3c(c2)OCCO3)on1 | inactive
42 | O=C(Cc1ccc(NC(=O)N2CCCCc3ccccc32)cc1)Nc1ccccc1Br | inconclusive [phenotype inactive, single point]
43 | Cc1nc2ccc(S(=O)(=O)NCC(=O)Nc3ccc(C)c(Cl)c3)cc2s1 | inconclusive [phenotype inactive, partial curve, poor fit]
44 | Cc1ccc(-c2cc3ncc4c(n3n2)-c2ccccc2OC4)cc1 | inactive
45 | COc1cc(NC(=O)NCCn2nnc3cc(S(=O)(=O)N(C)C)ccc32)cc(OC)c1OC | inactive
46 | CCc1ccc(C(=O)c2cn(CC(=O)Nc3ccc(OC)cc3)c3cc4c(cc3c2=O)OCCO4)cc1 | inconclusive [phenotype inactive, single point]
47 | C=CCc1ccccc1OCCn1c(C2CC(=O)N(Cc3ccc(F)cc3)C2)nc2ccccc21 (centres undefined) | inconclusive [phenotype inactive, single point]
48 | COc1ccccc1C(=O)N1c2ccccc2C(C)(c2ccc(Cl)cc2)CC1(C)C (centres undefined) | inconclusive [phenotype inactive, single point]
49 | COc1ccc(CCNS(=O)(=O)c2ccc(F)c(C(=O)Nc3ccc(Cl)cc3)c2)cc1OC | inconclusive [phenotype inactive, single point]
50 | COc1ccc2c(c1)CCc1c(C(=O)Nc3c(C)nn(Cc4ccc(Cl)cc4)c3C)noc1-2 | inconclusive [phenotype inactive, partial curve]
51 | Cc1ccc(NC(=O)CN2C(=O)CC(c3ccc(F)cc3)=Nc3ccccc32)cc1F | inconclusive [phenotype inactive, single point]
52 | CC(C)Sc1ncc(Cl)c(C(=O)Nc2ccc(S(=O)(=O)N3CCCCC3)cc2)n1 | inactive
53 | COc1ccc(NC(=O)CSc2nc(-c3cccc(C)c3)[nH]c2-c2ccccc2)cc1OC | inconclusive [phenotype inactive, single point]
54 | CCSc1ncc(Cl)c(C(=O)Nc2sc3c(c2C(=O)NCCCOC)CCCC3)n1 | inactive
55 | CC(C)c1nn2c(=O)cc(COC(=O)c3ccco3)nc2s1 | inconclusive [phenotype inactive, single point]
56 | CCn1c2c(c(=O)n3ncc(C(=O)N4CCN(c5ccc(Cl)cc5)CC4)c13)CN(Cc1ccc(OC)cc1)CC2 | inconclusive [phenotype inactive, partial curve, poor fit]
57 | CN1C(=O)c2ccccc2Sc2ccc(NC(=O)c3ccc(C(F)(F)F)cc3)cc21 | active: 11.3 µM
58 | CCCS(=O)(=O)c1c(S(=O)(=O)CCC)c2cc(C(C)(C)C)ccn2c1C(=O)c1ccccc1 | inactive
59 | Cc1ccc(-c2noc(CSc3nnc(C)n3-c3ccc(C)c(C)c3)n2)cc1 | inconclusive [phenotype inactive, single point]
